Experimental data published in PubChem BioAssay AID1347073 (National Center for Advancing Translational Sciences (NCATS), 2019).
Hit rate of the full screen: of about 45,000 compounds, about 200 (0.44%) were called active. About 7% were inconclusive and are not listed. Calls follow the shape of the dose curve; as a rule, active = well fitted activation curve with a large enough effect; inconclusive = small, poorly fitted or top-dose-only effect; inactive = no such curve, though single readings can be large or run the other way. The list shows a part of the results.

Test: qHTS of TDP-43 Inhibitors: NCGC Sytravon Library Screen; also: nearly all actives have a fitted effect of over 55% in size; as to growth rescue (activation): 0% is about no effect
Conditions: yeast TDP-43 toxicity rescue, BacTiter-Glo growth, 24 h; series mostly up to 46.1 µM; growth rescue (activation): at the top concentration
Summary of the method: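 TDP-43-expressing yeast, pregrown in raffinose, seeded at OD600 0.02 in galactose medium with compound for 24 hr at 30 deg C. Growth read by BacTiter-Glo luminescence, so rescue of toxicity appears as activation.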
Potency is read from the fitted curve at half-maximal effect.

For `Cc1ccc(S(=O)(=O)NCC(=O)N/N=C/c2ccccc2O)cc1`, which “growth rescue (activation)” value is on record?
Its value is inactive: -13.3%.

With `O=C(Nc1cccc(NC(=O)c2cccs2)c1)c1ccc(Br)cc1` as the compound, how does the “growth rescue (activation)” value read?
The value was inactive: 12.6%.

Which “growth rescue (activation)” value does the source give for `Cc1cccc(S(=O)(=O)Nc2ccc3c(c2)OCCO3)c1` here?
The value was inactive: 6.79%.

With `COc1ccc(NC(=O)CC2CC3CCC2C3)cn1` (centres undefined) as the compound, how does the “growth rescue (activation)” value read?
Its value is inactive: 18.4%.

With `CCCC(=O)C1=C(O)C(C(=O)OC)C(C)(C)CC1=Nc1ccc(OC)cc1` (centres undefined) as the compound, how does the “growth rescue (activation)” value read?
Its value is inactive: 8.48%.

Which “growth rescue (activation)” value does the source give for `O=C(Nc1ccc2[nH]c(=O)[nH]c2c1)c1cc(F)c(F)cc1Cl` here?
Its value is inactive: -1.47%.

Which “growth rescue (activation)” value does the source give for `CSc1nc2ccccc2n1CC(=O)Nc1ccccc1` here?
Its value is inactive: 7.05%.

With `COC(=O)CC1=C(C(=O)OC)C(c2ccc3c(c2)OCO3)C(C#N)=C(N)O1` (centres undefined) as the compound, how does the “growth rescue (activation)” value read?
Its value is inactive: 1.6%.

With `NC(=O)C1Cc2ccccc2CN1C(=O)c1cccc(Oc2ccccc2)c1` (centres undefined) as the compound, how does the “growth rescue (activation)” value read?
Its value is inactive: 16.5%.

For `O=C(CCNS(=O)(=O)c1cccc2nonc12)NC1CCCCC1`, which “growth rescue (activation)” value is on record?
Its value is inactive: 4.69%.

Which “growth rescue (activation)” value does the source give for `CCN(CC(=O)N1CCC(C(N)=O)CC1)S(=O)(=O)c1cc(Cl)ccc1Cl` here?
Its value is inactive: -2.24%.

With `Cc1[nH]n(-c2ccc([N+](=O)[O-])cc2)c(=O)c1C=NCCc1c(C)[nH]c2ccccc12` as the compound, how does the “growth rescue (activation)” value read?
Its value is inactive: -14.6%.

Which “growth rescue (activation)” value does the source give for `CN(CC(=O)Nc1ccc(S(=O)(=O)N2CCCC2)cc1)Cc1cccc(Cl)c1Cl` here?
Its value is inactive: -6.22%.

For `COc1cc(OC)c(S(=O)(=O)Nc2ccc(C(=O)N3CCCC3)cc2)cc1NC(C)=O`, which “growth rescue (activation)” value is on record?
Its value is inactive: -6.19%.

With `O=C(CN1C(=O)NC2(CCCCCC2)C1=O)NCc1ccc(F)cc1` as the compound, how does the “growth rescue (activation)” value read?
Its value is inactive: 4.65%.

Which “growth rescue (activation)” value does the source give for `CC1CCN(c2ccccc2NC(=O)c2cc3ccccc3o2)CC1` here?
The value was inactive: 15.6%.

With `Cc1ccc(-c2csc(NC(=O)/C=C/c3ccco3)c2C(=O)O)cc1` as the compound, how does the “growth rescue (activation)” value read?
Its value is inactive: -13%.

With `Cc1ccc(C(=O)c2ccccc2C(=O)OCC(=O)NCC2CCCO2)cc1` (centres undefined) as the compound, how does the “growth rescue (activation)” value read?
Its value is inactive: 23.4%.

With `O=C(CNC(=O)/C(=C/c1ccccc1)NC(=O)c1ccc(Br)cc1)OCc1ccccc1` as the compound, how does the “growth rescue (activation)” value read?
The value was inactive: 9.58%.

For `CCOc1ccc(S(=O)(=O)N2CCC(C(=O)Nc3cccc(NC(C)=O)c3)CC2)cc1`, which “growth rescue (activation)” value is on record?
Its value is inactive: -14.9%.

For `COc1ccc(N2CC(C(=O)N/N=C/c3ccc(C)cc3)CC2=O)cc1` (centres undefined), which “growth rescue (activation)” value is on record?
The value was inactive: 20.8%.

For `OC(c1ccccc1)(c1ccccc1)C1CCN(C(=S)NC2CCCC2)CC1`, which “growth rescue (activation)” value is on record?
The value was inactive: 14.3%.

Which “growth rescue (activation)” value does the source give for `Cc1nc2ccccc2n1CCN1CCOCC1` here?
Its value is inactive: 3.64%.

With `COc1ccc(Nc2nc3c([nH]2)c(=O)[nH]c(=O)n3C)cc1` as the compound, how does the “growth rescue (activation)” value read?
The value was inactive: 11.6%.

Which “growth rescue (activation)” value does the source give for `Cc1nc([N+](=O)[O-])c(Br)n1CC(=O)c1cccc([N+](=O)[O-])c1` here?
The value was inactive: 4.64%.

Which “growth rescue (activation)” value does the source give for `COc1cccc(-c2cc(NC=O)c3ncc(-c4ccc(OC)c(OC)c4)n3c2)c1` here?
Its value is inactive: 29.3%.

Which “growth rescue (activation)” value does the source give for `Cc1n[nH]c(=O)nc1N/N=C/c1ccc(O)c([N+](=O)[O-])c1` here?
Its value is inactive: -15.9%.

Which “growth rescue (activation)” value does the source give for `FC(F)(F)c1cccc(-c2cc3nc(NCCOc4ccccc4)ccn3n2)c1` here?
Its value is inactive: 14%.

Which “growth rescue (activation)” value does the source give for `CCOC(=O)c1sc2nc(C)nc(NC3CCC(O)CC3)c2c1C` (centres undefined) here?
The value was inactive: -6.69%.

With `O=CN1CCN(C(=O)c2ccc(-c3nc4ccccc4s3)s2)CC1` as the compound, how does the “growth rescue (activation)” value read?
The value was inactive: 4.3%.

For `O=C(N/N=C/c1ccc(OC(=O)c2cccc(Br)c2)cc1)c1cccnc1`, which “growth rescue (activation)” value is on record?
Its value is inactive: -11.9%.

With `O/N=C/c1ccc(OCc2ccccc2)c(Br)c1` as the compound, how does the Potency read?
The Potency was active: 11.2 µM.

With `CC(=O)c1c(N2CCN(c3ccc(F)cc3)CC2)nc(=S)n(Cc2ccccc2)c1C` as the compound, how does the “growth rescue (activation)” value read?
Its value is inactive: -16.1%.

Which “growth rescue (activation)” value does the source give for `Cc1cccc(OCC(=O)NNS(=O)(=O)c2ccccc2F)c1` here?
The value was inactive: 0.283%.

For `Nn1cnnc1N/N=C/c1cccc(Cl)c1Cl`, which “growth rescue (activation)” value is on record?
The value was inactive: 7.13%.

Which “growth rescue (activation)” value does the source give for `Cc1ccc([N+](=O)[O-])cc1-c1ccc(/C=C(\C#N)c2[nH]nc(N)c2C#N)o1` here?
The value was inactive: 16.4%.

For `O=C(CNC(=O)c1cccs1)OCc1c(F)cccc1Cl`, which “growth rescue (activation)” value is on record?
The value was inactive: 27.8%.

For `C=CCOc1ccc(C2NC(=S)NC(c3ccccc3)=C2C(C)=O)cc1OC` (centres undefined), which “growth rescue (activation)” value is on record?
Its value is inactive: 10.5%.

For `Cc1ccccc1C(=O)N1CCc2cc(-c3csc(NC(=O)CN4CCCC4)n3)ccc21`, which “growth rescue (activation)” value is on record?
Its value is inactive: 13.5%.

With `C/C(=N\NC(=O)c1ccc(O)cc1)c1ccc2c(c1)Nc1ccccc1S2` as the compound, how does the “growth rescue (activation)” value read?
Its value is inactive: 19.3%.

For `CCc1nnc(NC(=O)CSc2nnc(CNC(=O)c3ccccc3F)n2C)s1`, which “growth rescue (activation)” value is on record?
Its value is inactive: -1.86%.

With `CCn1c(=O)n(CC(=O)Nc2ccc(F)cc2)c(=O)c2ccccc21` as the compound, how does the “growth rescue (activation)” value read?
Its value is inactive: -8.51%.

Which “growth rescue (activation)” value does the source give for `O=C(COC(=O)COc1ccc(Br)cc1)NCC1CCCO1` (centres undefined) here?
The value was inactive: -18.1%.

With `CC(C)(C)c1ccc(C(=O)NCCC(=O)Nc2ccc3c(c2)OCCO3)cc1` as the compound, how does the “growth rescue (activation)” value read?
The value was inactive: 27.1%.

With `CCCCCCCCc1nnc(N)s1` as the compound, how does the “growth rescue (activation)” value read?
Its value is inactive: 26.7%.

Which “growth rescue (activation)” value does the source give for `S=C(NCc1ccco1)Nc1ccccn1` here?
The value was inactive: 13.8%.

Which “growth rescue (activation)” value does the source give for `CCc1nc2c(OCCn3cccc3)cccn2c1N(C)C(=O)C1CC1` here?
Its value is inactive: -6.49%.

For `O=C(Cn1nnc(-c2ccccc2)n1)N/N=C/c1ccco1`, which “growth rescue (activation)” value is on record?
Its value is inactive: 4.2%.

For `CCCNC(=O)C1(C)CCN(C(=O)c2ccc3ccccc3c2)C1` (centres undefined), which “growth rescue (activation)” value is on record?
Its value is inactive: 1.98%.

For `CCN(CC)C(=O)c1sc2nc(-c3ccccn3)[nH]c(=O)c2c1C`, which “growth rescue (activation)” value is on record?
The value was inactive: 3.8%.

With `Cc1nnc(Nc2ccc(O)cc2)[nH]c1=O` as the compound, how does the “growth rescue (activation)” value read?
Its value is inactive: 1.88%.

For `Cc1ccc(NC(=O)CN(C)C(=O)c2cc3ccccc3o2)cc1`, which “growth rescue (activation)” value is on record?
The value was inactive: -5.14%.

With `Cc1cc(-c2n[nH]c(=S)n2/N=C/c2ccc(C)s2)n[nH]1` as the compound, how does the “growth rescue (activation)” value read?
The value was inactive: 20.7%.

For `COc1ccc(CCNC2CC(=O)N(CCc3ccc(OC)c(OC)c3)C2=O)cc1` (centres undefined), which “growth rescue (activation)” value is on record?
The value was inactive: -9.1%.
